For this test, the system named is NCI-H322M lung. Briefly: NCI tumour cell line growth inhibition, 48 h.

Structures are written as SMILES.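 Dose response: 5 concentrations. Exposure: 48 h. Format: 96-well plates. Endpoint: linear interpolation; highest concentration if not reached. Abbreviation: GI50, concentration required for 50% inhibition of growth. TGI denotes the concentration required for complete inhibition of growth.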 Where only a bound is given, the exact number is not on record here.

On to `COc1cc2c3c(n(CCCN4CCCC4)c(=O)c2cc1OC)-c1cc2c(cc1C3=O)OCO2`, for which the GI50 is 1650 nM and the TGI stood at 3620 nM.

Consider `CCOC(=O)Nc1cccc(-n2cnc3cc(-c4ccc(O)cc4)ccc32)c1`, for which the GI50 is 1280 nM and the TGI was above 64200 nM.

For the origin of these results see PubChem BioAssay (NCI).
